# Source: PubChem BioAssay (Tox21)
# Several values for one entry are separate records, joined by “and”; a condition that tells them apart may be missing. Identical values can stand only once. The inconclusive results got no clear call from the source; some entries with a clear call stand among them for comparison. For some of these results: Potencies of inconclusive entries are doubtful fits and often do not repeat. More than one record can exist for a structure, and the calls need not agree. Activity calls are given as the source filed them. Unless noted, calls come from the whole dose curve; as a rule, active = well fitted curve in the direction sought with a large enough effect in the repeat runs; inconclusive = weak or mixed curves; inactive = no such curve, though single readings can be large; an effect the other way counts as inactive or inconclusive.
# Key:
# [1] = qHTS assay to identify small molecule agonists of the retinoic acid receptor (RAR) signaling pathway (AID 1159553); details: C3RL4 RARE luciferase reporter, agonist, 6 h; activation: at 73.3 µM (top of the series) unless noted; note: potency is the fitted concentration of half-maximal effect; for activation: % is set by controls: 0 for no effect and ±100 for the full control effect
# Method in brief: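 C3RL4 RARE-luciferase cells were seeded at 1,000/well and grown overnight at 37 C, then exposed to compounds for 6 hr at 37 C, 5% CO2. Luciferase reagent was added and luminescence was read after 30 min at room temperature.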
# [2] = qHTS assay to identify small molecule agonists of the hypoxia (HIF-1) signaling pathway - cell viability counter screen (AID 1224844; calls by dose curve; note: nearly all actives have a fitted effect of over 50% in size; note: potency is the fitted concentration of half-maximal effect)
# Method in brief: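 HRE-bla ME-180 cells, 2,000/well in 0.5% dialyzed FBS medium, treated 17 h at 37C with compounds. Viability read in the same wells as the bla reporter, by CellTiter-Glo luminescence after 30 min at room temperature.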
# [3] = qHTS assay to identify small molecule antagonists of the estrogen related receptor signaling pathway with the pleiotropic PPARgamma coactivator (PGC) from Tox21 10K library - cell viability counter screen (AID 1224840; active = well fitted cell-killing curve with a large enough effect in the repeat runs, not every such curve was filed as active; inconclusive = weak or mixed curves, or effect the other way; inactive = no such curve, though single readings can be large or run the other way; note: nearly all actives have a fitted effect of over 40% in size; note: potency is the fitted concentration of half-maximal effect)
# Method in brief: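 PGC/ERR cells (2,000/well) plated 6 h, then compound-treated for 17.5 h at 37 C. Viability measured by CellTiter-Fluor fluorescence after 30 min at 37 C, multiplexed with the pathway assay.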
# [4] = molecular target: Thyrotropin receptor (Homo sapiens) (UniProt P16473); test: qHTS assay to identify small molecule agonists of the thyroid stimulating hormone receptor (TSHR) signaling pathway (AID 1224843; calls by dose curve; note: nearly all actives have a fitted effect of over 45% in size; note: potency is the fitted concentration of half-maximal effect; for activation: % is set by controls: 0 for no effect and ±100 for the full control effect); details: TSHR-HEK293 cells, cAMP HTRF, agonist mode, 30 min; activation: at 92.4 µM (top of the series) unless noted
# UniProt P16473, sequence (P16473 whole entry, looked up): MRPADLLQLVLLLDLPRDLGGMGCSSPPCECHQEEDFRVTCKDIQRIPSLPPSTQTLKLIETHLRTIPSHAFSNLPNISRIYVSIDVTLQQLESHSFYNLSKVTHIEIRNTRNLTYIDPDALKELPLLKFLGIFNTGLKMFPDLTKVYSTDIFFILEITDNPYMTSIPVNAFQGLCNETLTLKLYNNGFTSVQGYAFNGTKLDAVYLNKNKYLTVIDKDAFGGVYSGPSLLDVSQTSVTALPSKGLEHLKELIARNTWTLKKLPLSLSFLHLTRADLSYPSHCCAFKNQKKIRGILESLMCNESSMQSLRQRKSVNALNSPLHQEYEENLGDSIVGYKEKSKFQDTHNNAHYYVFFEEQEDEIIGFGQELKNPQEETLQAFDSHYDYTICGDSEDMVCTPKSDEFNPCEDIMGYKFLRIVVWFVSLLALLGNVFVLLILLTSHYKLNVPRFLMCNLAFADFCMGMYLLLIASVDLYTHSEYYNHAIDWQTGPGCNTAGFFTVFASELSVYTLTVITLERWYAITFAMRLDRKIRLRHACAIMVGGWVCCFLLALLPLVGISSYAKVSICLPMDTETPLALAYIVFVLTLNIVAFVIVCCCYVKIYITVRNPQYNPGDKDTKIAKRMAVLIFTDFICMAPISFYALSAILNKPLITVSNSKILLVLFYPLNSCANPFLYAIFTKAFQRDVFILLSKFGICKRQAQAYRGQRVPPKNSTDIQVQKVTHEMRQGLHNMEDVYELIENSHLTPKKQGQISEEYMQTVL
# Method in brief: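 Screening of the Tox21 10K collection used HEK293 cells engineered with TSHR at 800 cells per well. After a 30-min room-temperature compound exposure, HTRF cAMP reagents were added and fluorescence recorded 1 h later.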
# [5] = qHTS assay to identify small molecule antagonists of the estrogen related receptor signaling pathway with the pleiotropic PPARgamma coactivator (PGC) from Tox21 10K library (AID 1224841; call rule not given here; note: actives are mostly falling curves and most rising ones were filed inactive; nearly all actives have a fitted effect of over 50% in size; note: potency is the fitted concentration of half-maximal effect)
# Method in brief: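 PGC/ERR cell line, 2,000 cells/well, pre-incubated 6 hours at 37 C, then exposed to compounds for 18 hours at 37 C; luciferase read with One-Glo luminescence after 30 min at room temperature.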
# [6] = qHTS assay to identify small molecule antagonists of the estrogen related receptor (ERR) signaling pathway (AID 1224819;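 note: luminescence from an ERR-driven luciferase reporter measured with One-Glo reagent; % is set by controls: 0 for no effect and ±100 for the full control effect; nearly all actives have a fitted effect of over 50% in size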)
# Method in brief: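 ERR reporter cell line (NTP) plated at 2,000 cells/well, settled 6 h at 37C/5% CO2, then exposed to LOPAC compounds for 18 h at 37C. One-Glo luciferase luminescence read after 30 min at room temperature.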
# [7] = test system: estrogen-related receptor alpha (ERRalpha) with PGC-1alpha coactivator, human; test: qHTS assay to identify small molecule antagonists of the estrogen related receptor signaling pathway with the pleiotropic PPARgamma coactivator (PGC) (AID 1224821; calls by dose curve;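 note: % is set by controls: 0 for no effect and ±100 for the full control effect; lower luminescence signal means antagonism of PGC/ERR signalling; nearly all actives have a fitted effect of over 50% in size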)
# Method in brief: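 Luminescent read-out (One-Glo, 30 min at room temperature) following 18 h treatment of PGC/ERR cells at 37 C with compounds delivered in DMSO. Cells had settled 6 h at 37 C/5% CO2 before dosing.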
# [8] = qHTS assay to identify small molecule agonists of the estrogen related receptor signaling pathway with the pleiotropic PPARgamma coactivator (PGC) from Tox21 10K library (AID 1224842); note: potency is the fitted concentration of half-maximal effect; nearly all actives have a fitted effect of over 15% in size
# Method in brief: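 Luminescence from One-Glo (30 min, room temperature) measured after PGC/ERR cells had 18 h at 37 C with pinned compound (23 nL in DMSO). Cells had been seeded at 2,000 per well and pre-incubated 6 h.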
# [9] = qHTS assay to identify small molecule antagonists of the estrogen related receptor (ERR) signaling pathway - cell viability counter screen (AID 1224818); note: % is set by controls: 0 for no effect and ±100 for the full control effect
# Method in brief: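 ERR cells, 2,000 per well, compound added after 6 h and incubated 17.5 h at 37 C. Viability read by CellTiter-Fluor fluorescence after a further 30 min at 37 C.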
# [10] = qHTS assay to identify small molecule agonists of the estrogen related receptor signaling pathway with the pleiotropic PPARgamma coactivator (PGC) (AID 1224823); note: % is set by controls: 0 for no effect and ±100 for the full control effect
# Method in brief: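 Steps: plate PGC/ERR cells at 2,000 cells/well; incubate 6 h, 37 C/5% CO2; pin-transfer compounds (DMSO); incubate 18 h, 37 C; add One-Glo; 30 min RT; read luminescence.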
# [11] = qHTS assay to identify small molecule antagonists of the constitutive androstane receptor (CAR) signaling pathway - cell viability counter screen (AID 1224837); note: potency is the fitted concentration of half-maximal effect; nearly all actives have a fitted effect of over 45% in size
# Method in brief: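 HepG2 cells stably carrying hCAR and CYP2B6-2.2kb reporter, stimulated with 50 nM CITCO and compounds at 15 concentrations for 23 h at 37 C. Viability measured by CellTiter-Fluor fluorescence.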
# [12] = qHTS assay to identify small molecule antagonists of the estrogen related receptor (ERR) signaling pathway from Tox21 library - cell viability counter screen (AID 1224834); note: nearly all actives have a fitted effect of over 30% in size; note: potency is the fitted concentration of half-maximal effect
# Method in brief: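 ERR reporter cells, 2,000 per well, rested 6 h, then exposed to compound in DMSO for 17.5 hours at 37 C. Viability read as fluorescence after 30 min with CellTiter-Fluor.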
# [13] = molecular target: Luciferin 4-monooxygenase (Photinus pyralis) (UniProt P08659); test: qHTS assay to identify small molecule inhibitors of firefly luciferase (AID 1224835); note: potency is the fitted concentration of half-maximal effect; nearly all actives have a fitted effect of over 25% in size
# UniProt P08659, sequence (P08659 whole entry, looked up): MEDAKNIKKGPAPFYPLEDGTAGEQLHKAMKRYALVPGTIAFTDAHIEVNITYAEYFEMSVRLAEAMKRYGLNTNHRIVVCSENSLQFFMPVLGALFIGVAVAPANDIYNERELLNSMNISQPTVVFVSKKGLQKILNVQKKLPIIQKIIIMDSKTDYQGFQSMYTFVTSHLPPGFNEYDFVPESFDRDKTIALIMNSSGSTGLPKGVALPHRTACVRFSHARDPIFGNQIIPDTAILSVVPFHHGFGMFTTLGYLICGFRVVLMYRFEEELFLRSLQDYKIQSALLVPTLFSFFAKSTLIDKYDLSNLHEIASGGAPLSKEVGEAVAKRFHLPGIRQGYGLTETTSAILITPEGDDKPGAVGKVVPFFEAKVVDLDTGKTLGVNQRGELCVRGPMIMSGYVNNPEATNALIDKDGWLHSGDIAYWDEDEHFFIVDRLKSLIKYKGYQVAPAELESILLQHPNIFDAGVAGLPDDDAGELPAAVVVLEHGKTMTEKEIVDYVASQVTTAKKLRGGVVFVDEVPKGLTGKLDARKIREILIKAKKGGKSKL
# Method in brief: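 Inhibition of purified Photinus luciferase is measured by luminescence. Substrate levels (D-luciferin, ATP) sit at their KM values. Each compound is tested in a concentration series.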
# [14] = molecular target: Nuclear receptor subfamily 1 group I member 3 (Homo sapiens) (UniProt Q14994); test: qHTS assay to identify small molecule agonists of the constitutive androstane receptor (CAR) signaling pathway (AID 1224839); note: potency is the fitted concentration of half-maximal effect; nearly all actives have a fitted effect of over 15% in size
# UniProt Q14994, sequence (Q14994 whole entry, looked up): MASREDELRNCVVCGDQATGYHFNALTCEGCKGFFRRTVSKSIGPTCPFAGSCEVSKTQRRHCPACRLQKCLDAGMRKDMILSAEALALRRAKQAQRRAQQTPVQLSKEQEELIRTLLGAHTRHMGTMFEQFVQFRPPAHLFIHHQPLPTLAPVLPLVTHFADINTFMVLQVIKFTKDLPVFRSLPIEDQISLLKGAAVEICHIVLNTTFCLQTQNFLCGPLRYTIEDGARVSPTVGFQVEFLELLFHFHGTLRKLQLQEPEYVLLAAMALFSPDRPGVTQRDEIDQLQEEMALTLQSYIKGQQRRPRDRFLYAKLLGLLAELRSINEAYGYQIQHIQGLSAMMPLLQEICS
# Method in brief: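 Luminescence read-out (ONE-Glo, 30 min, room temperature) from double-stable HepG2-CYP2B6-hCAR cells exposed 24 h to 15-point compound series in presence of 0.75 uM PK11195 final.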
# Tags give direction and shape of the fitted curve or compound fluorescence and quenching.
compound,measurement,setting,value
O=C(O)c1cccc(C(=O)O)c1,Potency,[1],inactive
same,Potency,[2],inactive
CC(=O)OCC[N+](C)(C)C,Potency,[1],inactive
same,Potency,[3],inactive
same,Potency,[4],inactive
Nc1ccc(N=Nc2ccccc2)c(N)n1,Potency,[1],active: 1.23 µM and active: 969 nM and active: 2.37 µM
same,Potency,[3],"inconclusive: 48.8 µM [cytotoxic, partial curve] and inconclusive: 66.8 µM [cytotoxic, partial curve, poor fit]"
Clc1ccnc(Cl)n1,Potency,[1],"inconclusive: 69.6 µM [activator, partial curve, poor fit]"
same,Potency,[5],"inconclusive: 2.2 µM [falling, partial curve]"
same,activation,[4],inconclusive: -12.7%
same,Potency,[2],"inconclusive: 55.7 µM [cytotoxic, single point]"
C=COCC(C)C,Potency,[1],inactive
same,Potency,[4],inactive
CC(=O)CCCCn1c(=O)c2c(ncn2C)n(C)c1=O,Potency,[6],inactive
same,Potency,[7],inactive
same,Potency,[5],inactive
c1ccc(C[n+]2cccc3ccccc32)cc1,Potency,[1],inactive
same,Potency,[5],active: 24.3 µM
C=CC(=O)[O-].C=CC(=O)[O-].[Zn+2],Potency,[1],"inconclusive: 67 µM [inhibitor, single point]"
same,activation,[4],inconclusive: -33%
same,Potency,[2],"inconclusive: 38 µM [rising, partial curve, poor fit]"
CC1(C)O[C@@H]2C[C@H]3[C@@H]4CCC5=CC(=O)C=C[C@]5(C)[C@@]4(F)[C@@H](O)C[C@]3(C)[C@]2(C(=O)CO)O1,Potency,[1],"inconclusive: 68.6 µM [inhibitor, partial curve] and inconclusive: 150 µM [inhibitor, single point]"
same,Potency,[5],inactive
CC(=O)N/N=C/c1ccc([N+](=O)[O-])o1,Potency,[1],"inconclusive: 33.5 µM [inhibitor, single point]"
same,Potency,[3],inactive
same,Potency,[4],"inconclusive: 29.8 µM [activator, partial curve]"
same,Potency,[2],"inconclusive: 26.8 µM [cytotoxic, single point]"
CCNc1nc(NC(C)CC)nc(OC)n1 (stereo not given),activation,[1],inconclusive: -8.45% [phenotype inactive]
same,Potency,[5],inactive
Cc1cccc(OCCOc2cccc(C)c2)c1,Potency,[1],"inconclusive: 6.48 µM [activator, full curve, poor fit]"
same,Potency,[4],"inconclusive: 0.648 µM [inhibitor, full curve]"
CC(=O)OCCOCCOCCOC(C)=O,Potency,[1],"inconclusive: 75.9 µM [inhibitor, single point]"
same,Potency,[4],active: 6.77 µM and inactive
Cc1ccc(OC(=O)c2ccccc2O)cc1,Potency,[1],active: 6.86 µM
same,Potency,[8],"inconclusive: 24.3 µM [activator, partial curve, poor fit]"
O=c1[nH]sc2cc(Cl)ccc12,Potency,[1],"inconclusive: 0.133 µM [inhibitor, full curve, poor fit]"
same,Potency,[2],active: 0.535 µM
CC(CC=O)CCCC(C)(C)O (stereo not given),activation,[1],inconclusive: -2% [phenotype inactive]
same,activation,[4],inconclusive: -26.2%
same,Potency,[2],inactive
CNCC(O)c1ccc(O)c(O)c1 (stereo not given),Potency,[9],inactive
same,Potency,[10],inactive
same,Potency,[8],"inconclusive: 9.44 µM [activator, partial curve, poor fit]"
same,Potency,[4],active: 2.98 µM
C=CCCC=C,activation,[1],inconclusive: -6.94% [phenotype inactive] [at 94.8 µM]
same,Potency,[8],"inconclusive: 28.1 µM [activator, partial curve]"
same,Potency,[2],"inconclusive: 50.4 µM [cytotoxic, partial curve, poor fit]"
COc1ccccc1N1CCN(CC(O)COc2cccc3ccccc23)CC1 (stereo not given),Potency,[9],inactive
same,Potency,[11],"inconclusive: 33.5 µM [cytotoxic, single point]"
same,Potency,[2],"inconclusive: 21.3 µM [cytotoxic, partial curve, poor fit]"
COC(=O)Nc1nc2ccc(C(=O)c3ccccc3)cc2[nH]1,Potency,[12],"inconclusive: 0.376 µM [cytotoxic, full curve]"
same,Potency,[13],"inconclusive: 5.49 µM [inhibitor, full curve]"
same,Potency,[14],"inconclusive: 5.96 µM [activator, partial curve]"
same,Potency,[2],"inconclusive: 1.07 µM [rising, full curve]"
NC(=O)c1cccnc1,Potency,[12],inactive
